Assay results published in the antibiotic and cytotoxicity screens of Wong et al. (2023).
This is one part of the list.

Assays:
HSkMC = human skeletal muscle cells; assay: cytotoxicity call (relative viability < 0.9); settings: 10 µM
HepG2 = assay: cytotoxicity call (relative viability < 0.9); settings: 10 µM
S. aureus RN4220 = assay: growth inhibition call (relative growth <= 0.2); settings: 50 µM

Row | SMILES | cytotoxicity call (HSkMC) | cytotoxicity call (HepG2) | growth inhibition call (S. aureus RN4220)
1 | C[C@H](CO)N1C[C@H](C)[C@H](CN(C)C(=O)Oc2ccc3ccccc3c2)OCc2cnnn2CCCC1=O | inactive | inactive | inactive
2 | CC1=NCCN=C(C)C1N1CCOCC1 | inactive | inactive | inactive
3 | CC(C)(O)/C=C/C(=O)[C@](C)(O)[C@H]1[C@H](O)C[C@@]2(C)[C@H]3CC=C4[C@@H](CC(=O)C(=O)C4(C)C)[C@]3(C)C(=O)C[C@]12C | active | active | inactive
4 | CCC1CN2CCc3cc(OC)c(OC)cc3C2CC1CC1NCCc2cc(OC)c(OC)cc21.Cl.Cl (stereo not drawn) | inactive | active | inactive
5 | CN(C)C(=O)N[C@H]1CN[C@H]2CCCO[C@H]21 | inactive | inactive | inactive
6 | OCC1CCCN2CCCCC12 (stereo not drawn) | inactive | inactive | inactive
7 | CN1[C@@H]2CC[C@H]1CNC(=O)C2 | inactive | inactive | inactive
8 | O=C(NC[C@@H]1CC[C@H]2NC[C@H]2O1)C1CCCC1 | inactive | inactive | inactive
9 | CN1C[C@@H]2C[C@H](C(=O)Nc3cccnc3)[C@@H](C1)O2 | inactive | inactive | inactive
10 | C=CCN1C(=O)NC(=O)/C(=C/c2ccco2)C1=O | active | inactive | inactive
11 | CCC1(C)CC(=O)NC(=O)C1 | inactive | inactive | inactive
12 | CC1(C)C(C=C(Cl)Cl)C1C(=O)OCc1cccc(Oc2ccccc2)c1 (stereo not drawn) | inactive | inactive | inactive
13 | COc1ccc(N=[N+]=[N-])cc1 | inactive | inactive | inactive
14 | Nc1ccc2c(c1)Cc1ccccc1-2 | inactive | inactive | inactive
15 | COC(=O)[C@H]1O[C@@H]2C[C@H]3O[C@@H](n4cnc5c(N)ncnc54)[C@H](OC)[C@H]3O[C@@]2(O)[C@@H](O)[C@@H]1O | inactive | inactive | inactive
16 | C[C@H](CO)N1C[C@H](C)[C@@H](CN(C)C(=O)Oc2ccccc2)OCc2ccccc2-c2c(n(C)c3ccccc23)C1=O | inactive | inactive | inactive
17 | C=CCC1(O)CCC2C3CCC4=CC(=O)CCC4=C3C=CC21C (stereo not drawn) | inactive | inactive | inactive
18 | OCc1ccc2c(c1)OCO2 | inactive | inactive | inactive
19 | NC1Cc2ccccc2C1 | inactive | inactive | inactive
20 | O=C1CNC[C@@H]2c3cccc(F)c3CCN12 | inactive | inactive | inactive
21 | NC1(c2ccc(Cl)cc2)CC1 | inactive | inactive | inactive

Row | SMILES | cytotoxicity call (HSkMC) | cytotoxicity call (HepG2) | growth inhibition call (S. aureus RN4220)
22 | Cc1[nH]c2ccccc2c1CN(C)C | inactive | inactive | inactive
23 | OC[C@H]1O[C@@H](Oc2c[nH]c3ccc(Br)c(Cl)c23)[C@H](O)[C@@H](O)[C@H]1O | inactive | inactive | inactive
24 | CN1C2CCC1CC(O)C2 (stereo not drawn) | inactive | inactive | inactive
25 | O=[N+]([O-])c1ccc2c3c(cccc13)CC2 | inactive | inactive | inactive
26 | CC(C)c1ccc2c(c1)[C@H](O)[C@H](N)CCO2 | inactive | inactive | inactive
27 | C[C@@]1(O)[C@H](O)[C@@H](CO)O[C@H]1n1ccc2c(N)ncnc21 | inactive | inactive | inactive
28 | COc1cccc(-c2ccc3c(CCN)c[nH]c3c2)c1 | inactive | active | inactive
29 | CN(C)c1ccc(CCN)cc1 | inactive | inactive | inactive
30 | CN(C)C(=O)Oc1cc(OC(=O)N(C)C)cc(C(O)CNC(C)(C)C)c1.Cl (stereo not drawn) | inactive | inactive | inactive
31 | Cc1cc(O[C@@H]2O[C@H](CO)[C@@H](O)[C@H](O)[C@H]2O)c2c3c(c(=O)oc2c1)CCC3 | inactive | inactive | inactive
32 | CCC1(C2=NCCN2)Cc2ccccc2O1.Cl (stereo not drawn) | inactive | inactive | inactive
33 | CC(C)[N+](C)(CCC(C(N)=O)(c1ccccc1)c1ccccc1)C(C)C.[I-] | inactive | inactive | inactive
34 | O=C(Cc1ccccc1)c1ccccc1 | inactive | inactive | inactive
35 | COC(=O)[C@H]1[C@H](CO)[C@H]2Cn3c(cccc3=O)[C@@H]1N2C(=O)C1CC1 | inactive | inactive | inactive
36 | COc1c(C[C@@H](C)O)c2c3c(C[C@@H](C)O)c(OC)c(=O)c4c(O)cc5c(c6c(cc(O)c(c1=O)c62)OCO5)c43 | active | active | inactive
37 | CC(=O)O.Cc1cc2c(C(C)C)c(O)c(O)c(C=O)c2c(O)c1-c1c(C)cc2c(C(C)C)c(O)c(O)c(C=O)c2c1O | inactive | inactive | inactive
38 | C=C(C)C1Cc2c(ccc3c(=O)c4c(oc23)COc2cc(OC)c(OC)cc2-4)O1 (stereo not drawn) | inactive | inactive | inactive
39 | NC(=O)c1cn([C@H]2O[C@@H](CO)[C@H](O)[C@@H]2O)c2ncnc(N)c12 | active | active | inactive
40 | CC(=O)N[C@H]1C(=O)NC(=S)N(c2ccccc2)C1=O | inactive | inactive | inactive
41 | CC(N)(Cc1ccccc1)c1ccccc1 (stereo not drawn) | inactive | inactive | inactive
42 | CC(=O)Nc1cc([As](=O)(O)O)ccc1O | inactive | inactive | inactive

Row | SMILES | cytotoxicity call (HSkMC) | cytotoxicity call (HepG2) | growth inhibition call (S. aureus RN4220)
43 | CCC(C)(C)O | inactive | inactive | inactive
44 | O=C1NC(=O)C(=O)C(=O)N1 | inactive | inactive | inactive
45 | Cc1ccc(OC(=O)N(C)C[C@@H]2OCc3ccccc3-c3c(n(C)c4ccccc34)C(=O)N([C@H](C)CO)C[C@@H]2C)cc1 | inactive | inactive | inactive
46 | CCOC(=O)c1cncn1C(C)c1ccccc1 (stereo not drawn) | inactive | inactive | inactive
47 | C=C(C)[C@H]1CN[C@H](C(=O)O)[C@H]1CC(=O)O | inactive | inactive | inactive
48 | Cn1cc(N2C[C@@H]3CNC[C@@H]3C2=O)cn1 | inactive | inactive | inactive
49 | c1ccc2sc(C3(N4CCCCC4)CCCCC3)cc2c1 | inactive | inactive | inactive
50 | CN1CC[C@]2(CCCO2)C1 | inactive | inactive | inactive
51 | NC[C@H]1CCCc2ccc(Cl)cc21 | inactive | inactive | inactive
52 | C=CCOC(Cn1ccnc1)c1ccc(Cl)cc1Cl.O=S(=O)(O)O (stereo not drawn) | inactive | inactive | active
53 | Cc1nc(-c2ccc(-c3ccc(C(=O)N4CCc5cc6c(cc54)C4(CCN(C)CC4)CO6)cc3)c(C)c2)no1 | active | active | active
54 | CN(C)C(=O)Oc1cccc([N+](C)(C)C)c1.[Br-] | inactive | inactive | inactive
55 | C[C@@H]1CN([C@H](C)CO)C(=O)c2c(c3ccccc3n2C)-c2ccccc2CO[C@@H]1CN(C)C(=O)Oc1ccccc1 | inactive | inactive | inactive
56 | CN(C)[C@@H]1C(=O)[C@@H](C(N)=O)C(=O)[C@@]2(O)C(=O)[C@H]3C(=O)c4c(O)ccc(Cl)c4[C@@](C)(O)[C@H]3C[C@@H]12 | inactive | inactive | active
57 | O=[N+]([O-])c1ccc(O)c([N+](=O)[O-])c1 | inactive | inactive | active
58 | CN(C)C(=O)Oc1ccc[n+](C)c1.[Br-] | inactive | active | inactive
59 | O=[N+]([O-])NC1=NCCN1Cc1ccc(Cl)nc1 | inactive | inactive | inactive
60 | CC(=O)c1c(O)cc(C)oc1=O | inactive | inactive | inactive
61 | [N-]=[N+]=NCC(=O)Nc1ccon1 | inactive | inactive | inactive
62 | C=CCc1ccc2c(c1)OCO2 | inactive | active | inactive
63 | CCN1C[C@]2(OC(=O)c3ccccc3NC(C)=O)CC[C@@H](OC)[C@@]34[C@H]5C[C@@H]6[C@@H](OC)C[C@](O)([C@@H](C[C@@H]23)[C@@H]14)[C@]5(O)[C@H]6OC | inactive | inactive | inactive

Row | SMILES | cytotoxicity call (HSkMC) | cytotoxicity call (HepG2) | growth inhibition call (S. aureus RN4220)
64 | CC1OC(OC2C=C3CCC4C(CCC5(C)C(c6ccc(=O)oc6)CCC45O)C3(C)CC2)C(O)C(O)C1O (stereo not drawn) | active | active | inactive
65 | COc1ccc2c(c1)[nH]c1c(C)nccc12 | inactive | active | inactive
66 | C[C@@H]1CN([C@H](C)CO)C(=O)CCCn2cc(nn2)CO[C@@H]1CN(C)C(=O)Oc1ccc2ccccc2c1 | inactive | inactive | inactive
67 | C=C(C)[C@H]1O[C@H]2CC[C@@]3(C)[C@@](O)(CC[C@H]4[C@@H]5OC(C)(C)[C@H]6C[C@@H]7C(=C)Cc8c(Cl)cc9[nH]c(c5c9c8[C@@]76O)[C@@]43C)[C@]23O[C@@H]3[C@H]1O | inactive | inactive | inactive
68 | Cc1nn[nH]n1 | inactive | inactive | inactive
69 | Cn1ccnc1CN1CCC[C@]2(CCNC2=O)C1 | inactive | inactive | inactive
70 | O=c1cccc2n1C[C@H]1CNC[C@H]2C1 | inactive | inactive | inactive
71 | Cc1cccc(CN2C[C@H]3OCCN(C)[C@H]3C2)n1 | inactive | inactive | inactive
72 | c1ccc2c(c1)sc1ccccc12 | active | inactive | inactive
73 | C[N+]1(C)C2CCC1CC(OC(=O)C(CO)c1ccccc1)C2.O=[N+]([O-])[O-] (stereo not drawn) | inactive | inactive | inactive
74 | CCOc1ccc(CN)cn1 | inactive | inactive | inactive
75 | CN1C[C@H](C(=O)N[C@]2(C)O[C@@]3(O)[C@@H]4CCCN4C(=O)[C@H](Cc4ccccc4)N3C2=O)C[C@@H]2c3cccc4[nH]cc(c34)C[C@H]21 | inactive | inactive | inactive
76 | COc1ccc(Cc2nccc3cc(OC)c(OC)cc23)cc1OC.Cl | inactive | active | inactive
77 | O=C(c1ccco1)N1C[C@H]2CN[C@@H](C2)C1 | inactive | inactive | inactive
78 | CN1[C@@H]2CC[C@H]1C[C@H](O)C2 | inactive | inactive | inactive
79 | CC[C@@H](C)[C@H]1NC(=O)C(C(C)=O)=C1O | inactive | inactive | inactive
80 | CN1[C@@H]2C[C@@H](O)C[C@H]1[C@@H]1O[C@@H]12 | inactive | inactive | inactive
81 | C[C@]12CC[C@]3(C)OC[C@](CO)(CO1)N23 | inactive | inactive | inactive
